Assay results from PMC4641898.
These are yes or no findings as the source states them, for the method shown. For some of these results: In cells and extracts the contact can be indirect. Some results given as binding are weak or reduced against the parent protein; the word gives no strength. Where a sequence is shown, tags or fusion partners need not be part of it. Values belong to the binder of their own block, whether it stands above or below them.

How the values were obtained:
[1] = biological target: T1, RRM protein (At5g10350), full length, yeast two-hybrid fusion (Arabidopsis thaliana) (UniProt Q9LX90); assay: two-hybrid; GAL4-based Matchmaker system, pGADT7-DEST and pGBKT7-DEST fusions co-transformed into S. cerevisiae PJ69-4a (His3 and Ade2 reporters); histidine and stringent adenine selection
T1 sequence: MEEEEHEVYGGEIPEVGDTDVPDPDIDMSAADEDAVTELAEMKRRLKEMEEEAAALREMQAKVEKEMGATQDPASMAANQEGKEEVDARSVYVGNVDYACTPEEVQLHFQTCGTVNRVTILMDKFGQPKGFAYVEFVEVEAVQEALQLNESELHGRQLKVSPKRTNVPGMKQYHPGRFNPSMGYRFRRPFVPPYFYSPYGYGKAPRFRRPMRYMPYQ

[2] = biological target: T2, RRM-3(170-217), C-terminus of the RRM protein, yeast two-hybrid fusion (Arabidopsis thaliana) (UniProt Q9LX90); assay: as above
T2 sequence: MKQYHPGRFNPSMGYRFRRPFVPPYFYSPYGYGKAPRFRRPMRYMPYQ

[3] = biological target: T3, RRM-4(82-217), RRM domain and C-terminus of the RRM protein, yeast two-hybrid fusion (Arabidopsis thaliana) (UniProt Q9LX90); assay: as above
T3 sequence: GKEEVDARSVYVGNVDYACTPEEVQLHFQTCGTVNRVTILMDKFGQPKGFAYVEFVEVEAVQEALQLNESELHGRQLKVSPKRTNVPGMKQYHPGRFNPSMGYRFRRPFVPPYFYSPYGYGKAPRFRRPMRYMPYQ

[4] = biological target: T4, RRM-5(82-169), RRM domain of the RRM protein, yeast two-hybrid fusion (Arabidopsis thaliana) (UniProt Q9LX90); assay: as above
T4 sequence: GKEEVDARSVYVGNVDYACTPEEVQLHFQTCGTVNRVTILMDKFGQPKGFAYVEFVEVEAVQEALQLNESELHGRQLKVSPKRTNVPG

[5] = biological target: T5, AtTERT N-terminal domain fragment RID1(1-271), split-YFP fusion in tobacco BY-2 protoplasts (Arabidopsis thaliana) (UniProt Q9SPU7); assay: split reporter; BiFC in tobacco BY-2 protoplasts co-transfected with a pair of nYFP and cYFP fusions; overnight in the dark at room temperature; epifluorescence microscopy
T5 sequence: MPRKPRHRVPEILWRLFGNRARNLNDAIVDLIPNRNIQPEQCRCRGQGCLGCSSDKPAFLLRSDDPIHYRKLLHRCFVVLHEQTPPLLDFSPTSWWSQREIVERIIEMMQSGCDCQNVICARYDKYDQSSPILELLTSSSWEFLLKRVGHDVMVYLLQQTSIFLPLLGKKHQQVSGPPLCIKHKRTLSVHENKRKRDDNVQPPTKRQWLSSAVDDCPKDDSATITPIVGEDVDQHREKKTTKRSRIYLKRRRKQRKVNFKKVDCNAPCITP

[6] = biological target: T6, RRM protein (At5g10350), full length, split-YFP fusion in tobacco BY-2 protoplasts (Arabidopsis thaliana) (UniProt Q9LX90); assay: split reporter; BiFC screen: nYFP-RRM against a cYFP-tagged Arabidopsis cDNA library in tobacco BY-2 protoplasts; the identified cYFP clones co-transfected with nYFP-RRM and mRFP-VirD2NLS
T6 sequence: T1 sequence

[7] = biological target: RRM-1(1-81), N-terminus of the RRM protein, yeast two-hybrid fusion (Arabidopsis thaliana) (UniProt Q9LX90); assay: two-hybrid; GAL4-based Matchmaker system, pGADT7-DEST and pGBKT7-DEST fusions co-transformed into S. cerevisiae PJ69-4a (His3 and Ade2 reporters); histidine and stringent adenine selection
[8] = biological target: T7, RRM-2(1-169), N-terminus and RRM domain of the RRM protein, yeast two-hybrid fusion (Arabidopsis thaliana) (UniProt Q9LX90); assay: as above
T7 sequence: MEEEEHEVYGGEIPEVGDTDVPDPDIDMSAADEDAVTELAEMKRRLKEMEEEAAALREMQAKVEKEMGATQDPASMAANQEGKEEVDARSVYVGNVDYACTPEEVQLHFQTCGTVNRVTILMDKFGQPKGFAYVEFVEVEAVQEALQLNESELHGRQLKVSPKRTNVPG

[9] = biological target: T6, RRM protein (At5g10350), full length, split-YFP fusion in tobacco BY-2 protoplasts (Arabidopsis thaliana); assay: split reporter; BiFC in tobacco BY-2 protoplasts co-transfected with a pair of nYFP and cYFP fusions; overnight in the dark at room temperature; epifluorescence microscopy

- binding [1]: binds
- binding [2]: binds
- binding [3]: binds
B1: RRM-4(82-217), RRM domain and C-terminus of the RRM protein, yeast two-hybrid fusion (domain or fragment, UniProt Q9LX90 82-217)
chain: T3 sequence

- binding [1]: binds
- binding [2]: binds
Binder: MKQYHPGRFNPSMGYRFRRPFVPPYFYSPYGYGKAPRFRRPMRYMPYQ (domain or fragment, UniProt Q9LX90 170-217) [RRM-3(170-217), C-terminus of the RRM protein, yeast two-hybrid fusion]

- binding [1]: no binding
- binding [2]: no binding
- binding [3]: no binding
- binding [4]: no binding
B2: RRM-5(82-169), RRM domain of the RRM protein, yeast two-hybrid fusion (domain or fragment, UniProt Q9LX90 82-169)
chain: T4 sequence

- binding [5]: binds
B3: Putative nuclear DNA-binding protein G2p, full length, nYFP fusion in tobacco BY-2 protoplasts (protein, UniProt Q96327-3 1-401)
chain: MSSDDERDEKELSLTSPEVVTKYKSAAEIVNKALQVVLAECKPKAKIVDICEKGDSFIKEQTASMYKNSKKKIERGVAFPTCISVNNTVGHFSPLASDESVLEDGDMVKIDMGCHIDGFIALVGHTHVLQEGPLSGRKADVIAAANTAADVALRLVRPGKKNTDVTEAIQKVAAAYDCKIVEGVLSHQLKQHVIDGNKVVLSVSSPETTVDEVEFEENEVYAIDIVASTGDGKPKLLDEKQTTIYKKDESVNYQLKMKASRFIISEIKQNFPRMPFTARSLEEKRARLGLVECVNHGHLQPYPVLYEKPGSCRFGFLPGDFVAQIKFTVLLMPNGSDRITSHTLQELPKKTIEDPEIKGWLALGIKKKKGGGKKKKAQKAGEKGEASTEAEPMDASSNAQE

- binding [5]: binds
B4: cYFP-tagged full-length Metallothionein 2A (MT2A), cDNA library clone 212M1 (protein, UniProt P25860 1-81)
chain: MSCCGGNCGCGSGCKCGNGCGGCKMYPDLGFSGETTTTETFVLGVAPAMKNQYEASGESNNAENDACKCGSDCKCDPCTCK

- binding [6]: binds
B5: cYFP-tagged putative nuclear DNA-binding protein G2p fragment G2p(347-401), cDNA library clone (domain or fragment, UniProt Q96327-3 347-401)
chain: LPKKTIEDPEIKGWLALGIKKKKGGGKKKKAQKAGEKGEASTEAEPMDASSNAQE

- binding [1]: no binding
- binding [7]: no binding
- binding [8]: no binding
- binding [2]: no binding
- binding [3]: no binding
- binding [4]: no binding
B6: RRM-1(1-81), N-terminus of the RRM protein, yeast two-hybrid fusion (domain or fragment, UniProt Q9LX90 1-81)
chain: MEEEEHEVYGGEIPEVGDTDVPDPDIDMSAADEDAVTELAEMKRRLKEMEEEAAALREMQAKVEKEMGATQDPASMAANQE

- binding [1]: no binding
- binding [8]: no binding
- binding [2]: no binding
- binding [3]: no binding
- binding [4]: no binding
B7: RRM-2(1-169), N-terminus and RRM domain of the RRM protein, yeast two-hybrid fusion (domain or fragment, UniProt Q9LX90 1-169)
chain: T7 sequence

- binding [9]: binds
B8: RRM protein (At5g10350), full length, split-YFP fusion in tobacco BY-2 protoplasts (protein, UniProt Q9LX90 1-217)
chain: T1 sequence

- binding [1]: binds
B9: RRM protein (At5g10350), full length, yeast two-hybrid fusion (protein, UniProt Q9LX90 1-217)
chain: T1 sequence
